# Source: paper PMC4336329 (PLoS ONE, 2015)
# Screen size: about 310,000 compounds; about 14,000 (4.5%) showed an effect of 50% or more. Effects have a minus sign here. The list shows a part of the results.
# Molecular target: human ether-à-go-go-related gene (hERG) potassium channel (human, UniProt Q12809)
# Assay: primary screen, population patch clamp on CHO cells stably expressing hERG
# 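Also: peak tail current of the secondary pulse compared with the same well before compound.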
# human ether-à-go-go-related gene (hERG) potassium channel, sequence (Q12809 whole entry, looked up): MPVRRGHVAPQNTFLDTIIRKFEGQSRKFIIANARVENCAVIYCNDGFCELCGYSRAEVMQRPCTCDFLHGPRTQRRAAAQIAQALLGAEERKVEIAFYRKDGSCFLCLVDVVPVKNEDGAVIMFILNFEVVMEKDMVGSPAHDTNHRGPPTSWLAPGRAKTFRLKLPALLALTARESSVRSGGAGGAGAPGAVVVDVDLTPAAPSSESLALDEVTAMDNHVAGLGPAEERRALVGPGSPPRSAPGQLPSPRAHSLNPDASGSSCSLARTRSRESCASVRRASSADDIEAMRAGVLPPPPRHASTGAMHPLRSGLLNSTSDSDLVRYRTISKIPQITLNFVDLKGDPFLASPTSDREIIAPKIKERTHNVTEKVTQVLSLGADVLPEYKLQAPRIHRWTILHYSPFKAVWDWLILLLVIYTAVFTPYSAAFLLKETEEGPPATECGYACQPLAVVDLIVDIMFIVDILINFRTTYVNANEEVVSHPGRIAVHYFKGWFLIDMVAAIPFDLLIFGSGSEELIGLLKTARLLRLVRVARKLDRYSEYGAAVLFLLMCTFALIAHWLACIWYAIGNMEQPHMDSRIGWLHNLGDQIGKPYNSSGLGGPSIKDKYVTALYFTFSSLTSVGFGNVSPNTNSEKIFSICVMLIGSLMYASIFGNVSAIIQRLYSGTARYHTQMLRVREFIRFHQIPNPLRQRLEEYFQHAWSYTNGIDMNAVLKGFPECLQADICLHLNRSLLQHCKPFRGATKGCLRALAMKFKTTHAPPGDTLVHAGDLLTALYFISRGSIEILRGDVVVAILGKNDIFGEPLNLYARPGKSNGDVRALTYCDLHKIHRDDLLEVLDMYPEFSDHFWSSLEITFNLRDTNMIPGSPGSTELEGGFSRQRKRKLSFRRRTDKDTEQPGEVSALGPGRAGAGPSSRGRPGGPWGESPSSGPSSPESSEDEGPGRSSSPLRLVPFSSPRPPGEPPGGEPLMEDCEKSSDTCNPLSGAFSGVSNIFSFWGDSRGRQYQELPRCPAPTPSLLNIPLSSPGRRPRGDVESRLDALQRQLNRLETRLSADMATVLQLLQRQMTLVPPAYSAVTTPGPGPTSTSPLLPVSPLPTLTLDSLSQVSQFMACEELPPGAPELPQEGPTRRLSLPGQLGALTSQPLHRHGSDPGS
row,SMILES,"hERG current change (%, negative = inhibition) at 10uM"
1,CC1(C)Cc2cccc(OCC(=O)OCC(=O)Nc3ccccc3)c2O1,-7.6%
2,COc1ccc(/C=N/NC(=O)c2ccc(N3CCCC3=O)cc2)cc1,3.31%
3,Cn1c(=O)oc2cc(S(=O)(=O)NCCC(=O)NC3CCCc4ccccc43)ccc21 (stereo not drawn),6.6%
4,Cc1ccc(NC(=O)CSc2ccc(-c3cccnc3)nn2)c(C)c1,-22.3%
5,C=C(C)C(=O)Nc1nnc(-c2cccs2)s1,-3.43%
6,COC(=O)c1ccc(NC(=O)COC(=O)CSc2nc(C)cc(C)n2)cc1,7.58%
7,O=C(Nc1nc2c(F)cc(F)cc2s1)c1ccccn1,3.01%
8,Nc1nc(CN2CCc3ccccc3C2)nc(Nc2ccccc2)n1,-51%
9,COc1cccc(NC(=S)N(CCc2nc3cc(C)c(C)cc3[nH]2)Cc2cccnc2)c1,4.24%
10,Cc1cc(C)n(Cc2cc(C(=O)O)c3ccccc3n2)n1,11%
11,Cc1ccc(S(=O)(=O)N2CCN(CC(=O)N3CCOCC3)CC2)cc1,16.8%
12,Cc1cc2c(cc1C)C(c1ccccc1OC(C)C)CC(=O)N2 (stereo not drawn),-2.1%
13,COc1ccccc1C(=O)N/C(=C\c1ccccc1)C(=O)NCc1ccco1,-38.1%
14,CC1=C(c2ccc(C(C)C)cc2)S(=O)(=O)N=C1N1CCN(C(=O)c2ccco2)CC1,-23.2%
15,CCOc1ccc(C2CC(c3c(O)n(C)c(=O)n(C)c3=O)=NN2)cc1 (stereo not drawn),-14.9%
16,CN(C(=O)CSc1nncn1C)C1CCCN(Cc2ccccc2F)C1 (stereo not drawn),0.0293%
17,COc1ccc(C)cc1NC(=O)COC(=O)c1ccc2c(c1)OCO2,-2.14%
18,O=C(N/N=C/c1cc2ccccc2nc1Cl)/C(=C/c1cccs1)NC(=O)c1ccccc1,-11.6%
19,O=C(O)c1ccccc1/C=N/NC(=O)C1CCCC1,20.8%
20,CCN(CC)S(=O)(=O)c1ccc(OC)nc1,10.4%
21,OC(COc1ccccc1)CN1CCN(c2ncccn2)CC1 (stereo not drawn),-22.9%
22,CCCCNC(=O)N1CCN(C/C=C/c2ccccc2)CC1,-29.9%
23,Cc1ccc(C)c(N(C)C(=O)CCS(=O)(=O)c2cccc3nonc23)c1,4.18%

row,SMILES,"hERG current change (%, negative = inhibition) at 10uM"
1,Cc1ccc(S(=O)(=O)Nc2c(C)[nH]c(=O)[nH]c2=O)cc1C,16.4%
2,CC(Sc1nnc2ccccn12)C(=O)Nc1ccc2c(c1)OCO2 (stereo not drawn),-4.66%
3,O=C(NCCN1CCOCC1)c1ccc(CS(=O)(=O)c2c(Cl)cccc2Cl)o1,0.302%
4,COc1ccc(C)cc1NC(=O)CC1COc2ccccc2O1 (stereo not drawn),-1.49%
5,C=CCN1C(=O)NC(=O)/C(=C/c2ccc(OCC(=O)Nc3ccc(C)cc3)cc2)C1=O,-1.77%
6,Cc1c2cccn2cc[n+]1C.[I-],-2.01%
7,O=c1oc2ccccc2cc1-c1ccc(O)cc1O,9.71%
8,COc1ccc(Nc2cc(C)nc3c(C)cccc23)cc1OC,-21.3%
9,CCN(C(=O)COC(=O)c1cc(NS(=O)(=O)c2ccc(Cl)c([N+](=O)[O-])c2)ccc1O)C1CCCCC1,0.522%
10,CCOC(=O)C1CCN(c2cc3c(cc2NC(=O)c2ccc(F)cc2)n(C)c(=O)n3C)CC1,4.47%
11,O=C(Nc1ncccc1O)c1c(O)c2ccccc2[nH]c1=O,10.7%
12,COc1cc(C(C)=O)ccc1OCC(=O)Nc1ccc(C)c(S(=O)(=O)N2CCCCCC2)c1,-26.3%
13,Cc1ccc(C(=O)O/N=C/c2ccc3c(c2)OCO3)cc1,16.7%
14,Cc1ccc(C=Nc2ccccc2C(=O)Nc2ccccc2)cc1,11.6%
15,CCc1ccc(OCC(=O)NNC(=O)Cc2cccs2)cc1,4.69%
16,CC(C)OC(=O)C1C2C=CC3(CN(CC4CCCO4)C(=O)C13)O2 (stereo not drawn),27.2%
17,CNC(=O)NC(=O)C(C)OC(=O)CCCc1nc2ccccc2s1 (stereo not drawn),4.95%
18,O=C(Nc1ccccn1)NC1CCCCC1,7.08%
19,CC(NC(=O)c1cc2sccc2n1C)c1ccc2c(c1)OCCO2 (stereo not drawn),-18.1%
20,CC(C)n1cnc2cc(NCc3ccccn3)ccc21,-2.75%
21,COc1ccc2[nH]c(C(=O)N3CCc4ccccc4C3)c(C)c2c1,5.11%
22,O=C(CC1Nc2ccccc2NC1=O)Nc1ccccc1 (stereo not drawn),-0.0811%
23,COc1cc([N+](=O)[O-])cc2cc(C(=O)NC(C)(C)C)c(=O)oc12,-19.7%

row,SMILES,"hERG current change (%, negative = inhibition) at 10uM"
1,CCN1C(=O)/C(=C\N2CCN(c3ccc(F)cc3)CC2)SC1=S,15.5%
2,O=C(NCc1cccnc1)NC1(C(F)(F)F)Oc2ccc(Cl)cc2O1 (stereo not drawn),-1.22%
3,Cc1occc1C(=O)NNC(=O)Nc1ccc(F)cc1F,25.4%
4,N/C(Cc1cccs1)=N\OC(=O)COc1ccc(Br)cc1,-3.54%
5,CN(CC1COc2ccccc2O1)C(=O)c1ccc(Cl)c(S(=O)(=O)N2CCCCCC2)c1 (stereo not drawn),-25.8%
6,Cc1ccc2c(c1)c1c(n2CC(O)Cn2c(C)nc3ccccc32)CCCC1 (stereo not drawn),-1.67%
7,Cc1ccc2[nH]c3c(c2c1)CCc1cn[nH]c1-3,16.7%
8,Cc1ccc(NC(=O)COC(=O)CCOc2ccccc2C)cc1,15.8%
9,O=C(Cn1c(C(=O)N2CCN(C3CCCCC3)CC2)cc2sccc21)c1ccccc1,-70.7%
10,O=C(/C=C/c1ccccc1)NC(NC(=S)Nc1cccc(O)c1)C(Cl)(Cl)Cl (stereo not drawn),5.34%
11,Cn1c(=O)n(C)c2cc(NC(=O)COc3ccc(F)cc3)ccc21,-41.8%
12,CCC(C)(C)C(=O)Nc1ncc(S(=O)(=O)c2ccc([N+](=O)[O-])cc2)s1,-25.1%
13,Cc1cccc(OCc2nnc(SC(C)C(=O)O)n2-c2ccccc2)c1 (stereo not drawn),4.08%
14,COc1ccc(CCNC(=O)COC(=O)C2CC2)cc1,0.505%
15,CCOC(=O)C(CC)n1cnc2c(oc3ccccc32)c1=O (stereo not drawn),11.7%
16,CCOC(=O)[C@@H]1[C@H]2COc3ccccc3[C@H]2N2C(=O)N(c3ccc(C)cc3)C(=O)[C@]12C,-1.42%
17,O=C(/C=C/c1ccc(Br)o1)OCc1ccccc1,2.18%
18,CN(Cc1ccccc1Cl)C(=O)C1CCC(=O)N(CCc2cccc(F)c2)C1 (stereo not drawn),-52.5%
19,CCCCOc1nc2ccccc2c(=O)n1-c1ccccc1,-11.6%
20,COc1ccc(NC(=S)NC(=O)c2ccc(Br)o2)cc1,15.1%
21,CCOC(=O)C(=NC1CCS(=O)(=O)C1)NNc1ccccc1Cl (stereo not drawn),-2.17%
22,CC(=O)N[C@H]1[C@H](OC2CCCCC2)O[C@H](COC(C)=O)[C@@H](OC(C)=O)[C@@H]1OC(C)=O,14.1%
23,O=C1[C@@H]2Cc3c([nH]c4ccccc34)C(c3ccc(Cl)cc3)N2C(=O)CN1CCO (stereo partly drawn),4.72%

row,SMILES,"hERG current change (%, negative = inhibition) at 10uM"
1,Cc1cc(NC(=O)CCC(=O)N(CC(=O)NCC2CCCO2)c2ccc(Cl)c(Cl)c2)no1 (stereo not drawn),11.3%
2,Cc1nc2c(C)cccn2c(=O)c1NC(=O)c1ccc(Br)o1,5.14%
3,C=CCn1c(-c2csc3c2CCC(C)C3)n[nH]c1=S (stereo not drawn),12.6%
4,O=C(N/N=C/c1ccncc1)c1cc2ccccc2o1,-6.88%
5,Cc1cccc(N2C(=O)CC(n3ccnc3)C2=O)c1C (stereo not drawn),18.4%
6,COCCCNC(=O)c1ccccc1NS(=O)(=O)c1ccc(C)cc1,5.58%
7,COc1ccccc1N1CCN(C(=O)CCc2nnc3ccc(N4CCCC4)nn23)CC1,-34.1%
8,COC(=O)c1ccc(Cc2ccc(C(=O)OC)o2)o1,10.6%
9,O=c1sc(N2CCN(c3ccccc3F)CC2)nc2ccsc12,2.11%
10,CSc1nnc(Nc2ccccc2C)s1,12.8%
11,CCCC(C)C(=O)Nc1cc(S(=O)(=O)N2CCCCC2)ccc1N1CCOCC1 (stereo not drawn),-27.9%
12,O=C(NCc1cccs1)c1nc(-c2cccs2)no1,0.862%
13,CC1(C)C(C=C(Cl)Cl)C1C(=O)N(Cc1ccccc1Cl)C1CCS(=O)(=O)C1 (stereo not drawn),0.294%
14,CCOc1ccc(CN2CCN(C3CCSCC3)CC2CCO)cc1 (stereo not drawn),-74.3%
15,CCOc1ncccc1C(=O)OCC(=O)Nc1ccc(C)c(S(=O)(=O)N(C)C)c1,4.9%
16,O=C(O)CCNC1C=CS(=O)(=O)C1 (stereo not drawn),16.9%
17,O=[N+]([O-])c1cc(CN2CCN(c3ccccc3)CC2)c(O)c2ncccc12,-7.8%
18,COc1ccccc1/C=N/OCC(=O)NCc1ccc2c(c1)OCO2,-8.58%
19,CCn1c(C)c(C)c2cc(C(=O)N3CCCC3)ccc21,-14.8%
20,COc1ccc(C(=O)OC(C)C(=O)NCC2CCCCC2)cc1S(=O)(=O)N1CCOCC1 (stereo not drawn),-23.9%
21,CN(C(=O)CSc1nc(O)cc(=O)n1C1CCCC1)c1ccccc1,-47%
